# Results: PMC4336329 (PLoS ONE, 2015)
# The campaign covered roughly 310,000 compounds. About 2,200 (0.71%) showed an effect of 50% or more. Effects have a minus sign here. Some of the results follow.
# Molecular target: human ether-à-go-go-related gene (hERG) potassium channel (human, UniProt Q12809)
# Experiment: primary screen, population patch clamp on CHO cells stably expressing hERG
# human ether-à-go-go-related gene (hERG) potassium channel, sequence (Q12809 whole entry, looked up): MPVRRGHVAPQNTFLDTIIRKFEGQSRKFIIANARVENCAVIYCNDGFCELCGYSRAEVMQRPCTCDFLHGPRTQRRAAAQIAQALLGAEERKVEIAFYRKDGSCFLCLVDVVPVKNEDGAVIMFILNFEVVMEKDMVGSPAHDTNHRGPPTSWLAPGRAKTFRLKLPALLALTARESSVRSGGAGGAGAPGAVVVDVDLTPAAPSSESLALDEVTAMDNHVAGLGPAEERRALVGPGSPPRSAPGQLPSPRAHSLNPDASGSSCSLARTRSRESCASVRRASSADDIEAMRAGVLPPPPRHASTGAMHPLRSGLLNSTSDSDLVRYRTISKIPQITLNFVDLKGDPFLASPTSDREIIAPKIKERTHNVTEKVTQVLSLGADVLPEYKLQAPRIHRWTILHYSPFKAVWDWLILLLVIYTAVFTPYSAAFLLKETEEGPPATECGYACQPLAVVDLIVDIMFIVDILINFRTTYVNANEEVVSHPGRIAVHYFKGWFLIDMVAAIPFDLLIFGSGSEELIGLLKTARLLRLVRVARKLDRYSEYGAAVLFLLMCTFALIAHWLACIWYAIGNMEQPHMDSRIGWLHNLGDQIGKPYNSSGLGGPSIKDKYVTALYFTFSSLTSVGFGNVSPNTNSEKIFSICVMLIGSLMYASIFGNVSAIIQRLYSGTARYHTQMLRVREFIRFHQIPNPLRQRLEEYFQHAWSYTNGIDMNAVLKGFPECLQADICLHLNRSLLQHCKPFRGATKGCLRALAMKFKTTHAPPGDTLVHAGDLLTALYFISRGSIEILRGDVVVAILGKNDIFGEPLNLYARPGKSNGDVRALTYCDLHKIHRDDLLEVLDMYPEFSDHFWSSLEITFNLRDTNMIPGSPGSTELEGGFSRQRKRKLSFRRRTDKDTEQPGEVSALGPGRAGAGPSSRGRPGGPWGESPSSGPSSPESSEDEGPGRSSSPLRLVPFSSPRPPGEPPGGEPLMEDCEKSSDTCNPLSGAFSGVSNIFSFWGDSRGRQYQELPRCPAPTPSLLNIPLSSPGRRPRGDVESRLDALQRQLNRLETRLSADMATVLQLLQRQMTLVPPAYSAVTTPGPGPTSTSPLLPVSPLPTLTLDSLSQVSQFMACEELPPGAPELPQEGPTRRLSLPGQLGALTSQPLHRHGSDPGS
row,SMILES,"hERG current change (%, negative = inhibition) at 1uM [%]"
1,Cc1ccc(-c2n[nH]c(=S)n2/N=C\c2ccco2)cc1,11.1
2,CSc1nc(-c2ccccc2)nc(C(Cl)Cl)n1,9.44
3,COc1cc([N+](=O)[O-])ccc1NC(=S)Nn1cnnc1,16
4,COc1ccc(OC)c2[nH]c(=O)c(CCNS(=O)(=O)c3ccc(F)cc3)cc12,8.18
5,CSC1=C(C#N)C(C)CC(=O)N1 (stereo not shown),-0.693
6,CCOC(=O)C1=C(C)N(C)C(C)=C(C(=O)OCC)C1c1ccncc1,10.5
7,CCN1CCN(c2cc(C)c3cc(NC(=O)c4cccs4)ccc3n2)CC1,4.54
8,O=C(c1ccccc1Cl)N1CCN(c2ccccn2)CC1,9.94
9,CCN(CC(=O)N1CCC(C(N)=O)CC1)S(=O)(=O)c1ccc(Cl)cc1,15.1
10,COc1ccccc1N(CC(=O)NCC1CCCO1)C(=O)CNS(=O)(=O)c1ccc(C)cc1 (stereo not shown),11.8
11,CC(C)C(C(=O)Nc1nccs1)N1C(=O)c2ccccc2C1=O (stereo not shown),20
12,Cc1[nH]c(=O)c(C(=O)/C=C/c2ccccc2F)c2c1CCCC2,3.24
13,O=[N+]([O-])c1cc(C(F)(F)F)ccc1N1CCN(CCO)CC1,0.0037
14,Cc1cc(C)nc(NC(=O)C2c3ccccc3Oc3ccccc32)n1,8.2
15,CCOC(=O)C1CCN(S(=O)(=O)c2cc(C(=O)OC)n(C)c2)CC1,6.73
16,COc1cccc(OC)c1C(=O)NN1CCCCC1,2.06
17,COC(=O)c1ccc(C2C(C(=O)c3ccco3)=C(O)C(=O)N2c2cc(C)on2)cc1 (stereo not shown),9.37
18,COC(=O)C1=C(CCc2ccccc2)NC(=O)NC1c1ccc([N+](=O)[O-])cc1 (stereo not shown),0.491
19,COCCNC(=O)CN(Cc1ccc2c(c1)OCO2)C(=O)CCC(=O)Nc1nccs1,8.29
20,O=C(C1CC1)N(CCN(C(=O)C1CC1)c1ccccc1)c1ccccc1,9.4
21,O=C(O)c1cc(N/N=C/c2ccc(OCc3ccccc3)cc2)ccc1Cl,-1.85
22,O=C(CNC(=O)c1ccc(Cl)cc1Cl)OCCOc1ccccc1,9.55

row,SMILES,"hERG current change (%, negative = inhibition) at 1uM [%]"
1,CCOc1ccc(NC(=O)CSc2nnc(-c3ccccc3)n2N)cc1,9.21
2,CCCCC1CCC(C(=O)Nc2ccc(S(=O)(=O)Nc3nccs3)cc2)CC1 (stereo not shown),6.63
3,CCOc1ccc(C(=O)NCCC(=O)N2CCC3(CC2)NCCc2[nH]cnc23)cc1,3.2
4,COC(=O)c1ccc(CSc2nc3c(cnn3-c3ccc(F)cc3)c(=O)[nH]2)o1,15.6
5,COc1cc(/C=C2\SC(=O)NC2=O)ccc1Oc1ccc([N+](=O)[O-])cc1[N+](=O)[O-],11.5
6,COc1cccc(/C=C/C(=O)Nc2ccccc2N2CCOCC2)c1,-4.56
7,Cc1cccc(C(=O)NCCNc2nc3cc(C)c(C)cc3cc2C)c1,8.3
8,COc1ccc(-c2cc(C(F)(F)F)n3ncc(C(=O)Nc4c(C)n(C)n(-c5ccccc5)c4=O)c3n2)cc1,9.28
9,O=C(Nc1ccc(Nc2ccccc2)cc1)c1c(F)c(F)c(F)c(F)c1F,10.8
10,CCCCSc1nnc(CSc2nc3nc(C)cc(C)n3n2)o1,-3.1
11,CCOc1cc(CN2CCc3c([nH]c4ccccc34)C2)ccc1OC,5.97
12,CCN(CC)c1ccc(/C=C(\C#N)C(N)=S)cc1,7.02
13,Cc1cc(C)cc(NS(=O)(=O)c2c(C(=O)N3CCOCC3)c(C)n(C)c2C)c1,16.3
14,Cn1/c(=N/N=C/c2ccc(Cl)c([N+](=O)[O-])c2)sc2ccccc21,7.16
15,Cc1cc(C2=CC(C)(c3cc(C)oc3C)Nc3nc(C(F)(F)F)nn32)c(C)o1 (stereo not shown),15.3
16,O=C(N/N=C/C1CCCCC1)c1ccccc1-n1cccc1,13.4
17,CCN(CC)S(=O)(=O)c1cccc(-c2nnc(SCC(=O)NC3CCCCCCC3)n2N)c1,0.48
18,COc1cc(C(=O)Nc2sc(C(=O)N3CCOCC3)c(C)c2C#N)cc(OC)c1OC,11.3
19,CCNC(=S)Nc1cc(OCC)c(N2CCOCC2)cc1OCC,10
20,O=C(/C=C/c1cccs1)Nc1cccc(NC(=O)/C=C/c2cccs2)n1,11.3
21,CCc1cccc(NC(=O)c2cc(S(=O)(=O)N(C)C)ccc2N2CCCC2)c1,-9.27
22,FC(F)(F)c1ccc(NCc2ccccn2)nc1,9.79

row,SMILES,"hERG current change (%, negative = inhibition) at 1uM [%]"
1,O=C(COC(=O)c1cc(-c2ccc(F)cc2)nc2ccccc12)NCC1CCCO1 (stereo not shown),0.317
2,O=C(NC1CCCC1)C1CCCN1C(=O)Nc1ccc(Cl)cc1 (stereo not shown),1.63
3,O=c1[nH]c(NCCO)nnc1Cc1ccccc1,10.5
4,COc1cccc(-c2nc(CS(=O)(=O)CC(=O)N3CCN(C4CCCCC4)CC3)c(C)o2)c1,-6.54
5,O=C(COC(=O)C1=COCCO1)Nc1c(F)cccc1F,19
6,O=C(C[n+]1cc(-c2ccccc2)n2c1CCC2)Nc1nc(-c2ccccc2)cs1.[Cl-],-8.5
7,c1ccc(N2CCOCCOCCOCCOCC2)cc1,6.91
8,O=C(CC1SCCNC1=O)Nc1ccc(F)c(Cl)c1 (stereo not shown),16.9
9,COc1ccc(C(Cl)=C(c2ccc(OC)cc2)c2ccc(OC)cc2)cc1,22
10,CN1C(=O)N(CC(=O)Nc2nccs2)C(=O)C12CCCCC2,10.5
11,COCCNC(=O)CCCn1c(=O)c2cc(OC)c(OC)cc2n(CC(=O)NCCC2=CCCCC2)c1=O,6.1
12,NC(=O)c1ccccc1NC(=O)/C=C/c1c(Cl)cccc1Cl,3.55
13,Cc1c(/C=C/C(=O)c2ccc(Cl)s2)cnn1C,4.64
14,CC(NC(=O)C1c2ccccc2Oc2ccccc21)C1CCCO1 (stereo not shown),14.3
15,CCc1ccc(-n2c(=O)c3ccc(C(=O)NCCc4ccccc4)cc3n(CC(N)=O)c2=O)cc1,9.52
16,CCCc1c2c(cc3c(=O)cc(C(=O)OCC)oc13)CCCC2,11.8
17,O=C(COc1ccc(Br)cc1)NC(=S)Nc1ccccc1N1CCOCC1,18.5
18,COc1ccc(C(CNC(=O)c2ccc(Cl)s2)N2CCOCC2)cc1 (stereo not shown),0.315
19,O=C(Nc1cccc2c1N(C(=O)c1ccco1)CCC2)c1ccco1,5.89
20,COc1ccc(/C=N/NC(=O)C(=O)NCc2cccnc2)cc1,12.5
21,COc1cccc(NC(=O)c2cccc(S(=O)(=O)N3CCN(Cc4ccccc4)CC3)c2)c1,12.7
22,Cc1ccnc(NS(=O)(=O)c2ccc(NS(=O)(=O)c3ccccc3)cc2)n1,-0.544

row,SMILES,"hERG current change (%, negative = inhibition) at 1uM [%]"
1,Cc1ccc2c(CC(=O)NNC(=O)c3ccccc3O)coc2c1,9.45
2,O=C(CNC(=O)c1ccco1)NCC(=O)OCc1ccc(Cl)cc1Cl,-23.7
3,CCOc1cccc(/C(O)=C2/C(=O)C(=O)N(CCN3CCOCC3)C2c2ccncc2)c1 (stereo not shown),-1.9
4,Cc1cc(Br)c(NC(=O)COn2nnc3ccc(S(C)(=O)=O)cc32)c(Br)c1,2.99
5,CC(=O)Nc1sc(N/N=C\c2ccccc2)nc1-c1cccs1,13.4
6,Cc1oc2ccc(OCC(N)=O)cc2c1C(=O)OC(C)C,-0.677
7,Cc1nn(C)c(C(=O)Nc2ccc3c(c2)OCO3)c1[N+](=O)[O-],17
8,CS(=O)c1ccccc1COC(=O)Nc1ccccc1 (stereo not shown),9.6
9,COC(=O)C(N)CCCCN.Cl (stereo not shown),14.2
10,C=CCn1c(O)c(C(C)=NCCN2CCOCC2)c(=O)[nH]c1=O,-4.63
11,COc1cc(/C=C/C(=O)Nc2ccc(C(C)=O)cc2)cc(OC)c1OC,10.2
12,COC(=O)C1CCN(C(=O)COC(=O)COc2ccc(C#N)cc2)CC1,9.61
13,N=c1oc2ccc(Cl)cc2cc1C(=O)Nc1ccc(F)cc1,9.66
14,O=C(Cn1nnc(-c2ccccc2F)n1)Nc1ccc(S(=O)(=O)NC2CCCC2)cc1,9.62
15,CCOc1ccc(NC(=O)c2sc3nc4n(c(=O)c3c2C)CCC4)cc1,6.67
16,O=C(O)c1ccc(N/N=C/c2ccncc2)cc1,10
17,Cc1nc2ccccn2c1/C(O)=C1\C(=O)C(=O)N(CCN2CCOCC2)C1c1ccncc1 (stereo not shown),2.26
18,CC1CCC(NC(=O)CCS(=O)(=O)c2ccc3c(c2)oc(=O)n3C)CC1 (stereo not shown),12.3
19,Cc1nc(C)c(C(=O)N2CCCC(C(=O)c3ccc4ccccc4c3)C2)s1 (stereo not shown),-2.83
20,Cc1cc(Nc2ccc(Br)cc2)n2nc(C)nc2n1,-17.1
21,CCN(CC)C(=O)c1oc2ccc(S(=O)(=O)N3CCCCCC3)cc2c1C,7.35
22,COc1ccccc1NC(=O)CSc1nnc(CNC(=O)c2ccco2)n1C,10.2
